Measurements reported in the supplement of paper PMC7125110.
± gives the standard error. This sample is rich in variants without activity.

B1: glmS ribozyme (parent)
chain: AUAAAAGCGCCAGAACUACAGAAAUGUAGUUGACGAGGAGGAGGUUUAUCGAAUUUUCGGCGGAUGCCUCCAAA

Variants of: B1
Experiment: self-cleavage kobs at 2500 uM GlcN6P; higher = faster cleavage; RNA array
Conditions: with glucosamine-6-phosphate
How it was run: (§1)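 Over ~14 h at 37 °C, tiles were imaged as glucosamine-6-phosphate (40 μM to 10 mM) in HEPES/KCl/Mg(OAc)2 buffer flowed across sequenced MiSeq chips. The chips carried barcoded ribozyme variants transcribed in situ by E. coli RNA polymerase and tracked with a hybridised Cy3 probe. After normalisation to baseline and to non-cleaving reference variants, one- or two-exponential decay fits of per-tile medians gave kobs. kcat and KM followed from weighted Michaelis–Menten fits across concentrations.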

| Variant | self-cleavage kobs at 2500 uM GlcN6P |
| --- | --- |
| G7U G29A A33U G63U | < 1e-05 s⁻¹ |
| G7U G29A A36C U69C | < 1e-05 s⁻¹ |
| G7U G29U A42C A53C G66A | < 1e-05 s⁻¹ |
| G7U G35A U69G | < 1e-05 s⁻¹ |
| G7U G37U A42U G51U | < 1e-05 s⁻¹ |
| G7U G40A U47C | < 1e-05 s⁻¹ |
| G7U G40U G41C U49A G66C | < 1e-05 s⁻¹ |
| G7U G60A C67U C70U A73U | < 1e-05 s⁻¹ |
| G7U G63C A64G | < 1e-05 s⁻¹ |
| G7U U30G A33U G44C | < 1e-05 s⁻¹ |
| G7U U31C G32C G35C A36C C71U | < 1e-05 s⁻¹ |
| G7U U45A C50A C71G | < 1e-05 s⁻¹ |
| G7U U45A C58A | < 1e-05 s⁻¹ |
| G7U U55A U56A | < 1e-05 s⁻¹ |
| C8A A14C G51U | < 1e-05 s⁻¹ |
| C8A A33C U65G | < 1e-05 s⁻¹ |
| C8A A33U C68G | < 1e-05 s⁻¹ |
| C8A A36C G37A U46A A52U | < 1e-05 s⁻¹ |
| C8A A36G A53G | < 1e-05 s⁻¹ |
| C8A A39C G41C C58U C68U | < 1e-05 s⁻¹ |
| C8A A39U G44C | < 1e-05 s⁻¹ |

| Variant | self-cleavage kobs at 2500 uM GlcN6P |
| --- | --- |
| C8A A48U U69A | < 1e-05 s⁻¹ |
| C8A A53C U55C G60U C68G | < 1e-05 s⁻¹ |
| C8A C11A G38U C61G | < 1e-05 s⁻¹ |
| C8A C11G A53G | < 1e-05 s⁻¹ |
| C8A C58U A64U C67G | < 1e-05 s⁻¹ |
| C8A G9A C71G | < 1e-05 s⁻¹ |
| C8A G9U C67U | < 1e-05 s⁻¹ |
| C8A G13A G32C | < 1e-05 s⁻¹ |
| C8A G21U U31C G32C G35U | < 1e-05 s⁻¹ |
| C8A G29A A33U G44C C50A U55G U56C | < 1e-05 s⁻¹ |
| C8A G29C G63A C70U | < 1e-05 s⁻¹ |
| C8A G32U A48C | < 1e-05 s⁻¹ |
| C8A G32U G37U | < 1e-05 s⁻¹ |
| C8A G37U C58U | < 1e-05 s⁻¹ |
| C8A G38A G63U C68U | < 1e-05 s⁻¹ |
| C8A G40C A48C G51C G59C | < 1e-05 s⁻¹ |
| C8A G40C U47A A64U | < 1e-05 s⁻¹ |
| C8A G43A C61U | < 1e-05 s⁻¹ |
| C8A G63A C67U | < 1e-05 s⁻¹ |
| C8A U46G C61A U65C | < 1e-05 s⁻¹ |
| C8A U55C C70A | < 1e-05 s⁻¹ |

| Variant | self-cleavage kobs at 2500 uM GlcN6P |
| --- | --- |
| C8G A12U A14C A48U A64C C70U | < 1e-05 s⁻¹ |
| C8G A14G A39C G44A | < 1e-05 s⁻¹ |
| C8G A14G G32U A64U | < 1e-05 s⁻¹ |
| C8G A14U A53G | < 1e-05 s⁻¹ |
| C8G A15C A36G | < 1e-05 s⁻¹ |
| C8G A33C C34U U46G U65C | < 1e-05 s⁻¹ |
| C8G A33G A52G A53G C68A U69G | 0.000457 ± 0.00011 s⁻¹ |
| C8G A42C C67U C70U | < 1e-05 s⁻¹ |
| C8G A42U U49C A52G | < 1e-05 s⁻¹ |
| C8G A48U A53U | < 1e-05 s⁻¹ |
| C8G A64U C70U | < 1e-05 s⁻¹ |
| C8G C10U C11U G13A C34G | < 1e-05 s⁻¹ |
| C8G C16A G43U G44U G62A | < 1e-05 s⁻¹ |
| C8G C16A G60U | < 1e-05 s⁻¹ |
| C8G G9U G29U C71U | < 1e-05 s⁻¹ |
| C8G G9U G44A G51C | < 1e-05 s⁻¹ |
| C8G G29A A39C A53U G66U | < 1e-05 s⁻¹ |
| C8G G29C G60U | < 1e-05 s⁻¹ |
| C8G G35C A39U U47A | < 1e-05 s⁻¹ |
| C8G G37C G43A G59A | < 1e-05 s⁻¹ |
| C8G G51C C70G | < 1e-05 s⁻¹ |

| Variant | self-cleavage kobs at 2500 uM GlcN6P |
| --- | --- |
| C8G G59C C68G | < 1e-05 s⁻¹ |
| C8G G66U C70A C71U | < 1e-05 s⁻¹ |
| C8G U30A U65G C70U | < 1e-05 s⁻¹ |
| C8G U31A U49A | < 1e-05 s⁻¹ |
| C8G U47C C61U | < 1e-05 s⁻¹ |
| C8U A14G A42C U46G U49A G66A | < 1e-05 s⁻¹ |
| C8U A14G C50U C71G | < 1e-05 s⁻¹ |
| C8U A15C C16U U30G A53C U65G | < 1e-05 s⁻¹ |
| C8U A15G A42G A48G C50U | < 1e-05 s⁻¹ |
| C8U A15U A36C | < 1e-05 s⁻¹ |
| C8U A36G G60U | < 1e-05 s⁻¹ |
| C8U A39C G40U U46G U47C C67U | < 1e-05 s⁻¹ |
| C8U A39C G59U | < 1e-05 s⁻¹ |
| C8U A42G G43U U49G | < 1e-05 s⁻¹ |
| C8U C10U A48G G60C | < 1e-05 s⁻¹ |
| C8U C10U G13U G29C C58U C61A C67A | 0.000532 ± 0.00015 s⁻¹ |
| C8U C11G G13C | < 1e-05 s⁻¹ |
| C8U C11G G40C G51A A64C | < 1e-05 s⁻¹ |
| C8U C11U G13C U65C | < 1e-05 s⁻¹ |

Variants of: B1
Experiment: self-cleavage kobs at 10000 uM GlcN6P; higher = faster cleavage; RNA array
Conditions: with glucosamine-6-phosphate
How it was run: as §1

| Variant | self-cleavage kobs at 10000 uM GlcN6P |
| --- | --- |
| G7U U45A C50A C71G | < 1e-05 s⁻¹ |
| C8G A48U A53U | < 1e-05 s⁻¹ |
| C8G C10U C11U G13A C34G | < 1e-05 s⁻¹ |
| C8G G29C G60U | < 1e-05 s⁻¹ |
| C8U A15G A42G A48G C50U | < 1e-05 s⁻¹ |
